Measurements as given in ChEMBL document CHEMBL4888484, “Replenishing the malaria drug discovery pipeline: Screening and hit evaluation of the MMV Hit Generation Library 1 (HGL1) against asexual blood stage Plasmodium falciparum ,using a nano luciferase reporter read-out” (2022).
The whole screen tested about 150,000 compounds, of which about 540 (0.36%) showed an effect of 50% or more. The list shows a part of the results.

tested on: Plasmodium falciparum; assay: Primary screen in NF54 nanoGlo assay, in single point, at 2uM, 72h; a lower Z score goes with more inhibition; format: functional, Erythrocyte; conditions: timepoint 72 hour

Structure (SMILES) | % Inhibition [%] | Z score
Cc1ccc2c(c1)cc(CN(C)Cc1ccon1)c(=O)n2C | 1 | -0.11
COC(=O)C1CCN(CC2CCC(F)(F)CC2)CC1 | -8 | 1.19
Cc1ccc2cc(CN(CCCN3CCCC3=O)C(=O)c3ccco3)c(N3CCC[C@H](O)C3)nc2c1 | -17 | 2.02
COc1ccccc1C1N=C(c2ccc3c(c2)OCO3)CC(c2ccccc2O)N1 (stereo not drawn) | 15 | -1.8
C[C@]12C[C@H](c3ccccc3O1)C(C(=O)N1CCCCC1)C(=O)N2 (stereo partly drawn) | 2 | -0.33
COc1ccc(C)cc1C(=O)N1CCOC[C@@H](CN(C)C)C1 | 0 | -0.01
O=C(C1CCN(c2ccc(F)cc2)C1=O)N1CCC(n2cccn2)C1 (stereo not drawn) | -10 | 1.86
Cc1ccc(C(=O)[C@@H]2CC(=O)Nc3[nH]nc(C)c32)cc1C | -13 | 1.72
Cc1c([C@H](C)NC(=O)N(C)C2CCC(c3ccccc3)CC2)cnn1C (stereo partly drawn) | -13 | 1.16
Cc1nc2c(s1)[C@@H](N(C)Cc1occc1C(=O)O)CCC2 | -7 | 1.2
O=S1(=O)CCC(O)(CN2CCc3cc(Cl)ccc32)CC1 | -8 | 0.85
Cc1csc(CNC[C@H]2COC3(CCC(C)CC3)O2)n1 (stereo partly drawn) | -14 | 2
Cc1cc(C(=O)N2CC[C@H](Cc3noc(-c4ccccc4)n3)C2)nn1C | -17 | 3.26
COc1cc(C)ccc1OCc1nc(C(=O)N[C@H]2CCOC(C)(C)C2)co1 | -3 | 0.49
Nc1nsc(N2CCN(S(=O)(=O)Cc3cccc(F)c3)CC2)n1 | -22 | 2.87
O=C(NCCc1ccccc1)c1nn(CCOc2ccccc2)c2c1CNCC2 | 1 | -0.2
CC(CCc1ccccc1)NC(=O)C1COCC(=O)N1Cc1cccs1 (stereo not drawn) | -6 | 1.18
CC(=O)N1CCC[C@H]1C(=O)NCc1ccc(N2CCCCC2)nc1 | -7 | 1.12
O=C(NCCN1CCCC1)c1ccc(-c2c(-c3ccc(F)cc3)ncn2C2CCCC2)o1 | 5 | -0.8
CCC(=O)N(Cc1cc(-c2ccc(OC)cc2OC)on1)CC(C)C | -5 | 0.58
O=C(c1ccco1)N1CCN(C(=O)C2CN(c3cc(-n4cccn4)ncn3)C2)CC1 | 14 | -1.85
NC(=O)c1ccc(S(=O)(=O)N[C@@H]2C[C@H]3OCC[C@@H]23)cc1 | 4 | -0.5
Cc1nc(C)c(C(=O)NCC2CCOC2C(C)C)o1 (stereo not drawn) | 1 | -0.2
Cc1cccnc1CCNC(=O)N1CC(O)(c2cccc(Br)c2)C1 | -3 | 0.39
CCOC(=O)C1CCN(CN2C(=O)NC3(CCCCCCC3)C2=O)CC1 | -5 | 0.62
COc1cc(OC)cc(-c2onc(C)c2C(=O)NCc2ccco2)c1 | -9 | 0.87
Cn1cnn(Cc2ccccc2C(C)(C)C#N)c1=O | -9 | 0.76

Structure (SMILES) | % Inhibition [%] | Z score
O=C(Nc1ccc2c(c1)OCCCO2)c1n[nH]c2ccccc12 | -8 | 1.42
Nc1cnccc1-c1cccc(C(=O)NCCCC[C@H]2CCCO2)c1 | -17 | 1.66
CCN(C[C@H]1CCCO1)C(=O)CCc1nnc(CCc2ccc(OC)cc2)o1 | -24 | 2.15
c1ccc(CNc2ccc(NCc3ccccc3)nn2)cc1 | 9 | -1.12
Cc1cc(=O)n(CC(=O)NCc2ccccc2)c(N)n1 | -15 | 1.58
COCCOCCS(=O)(=O)Nc1cccc2c1OC(C)(C)CC2 | -5 | 0.71
Cc1ccc2oc(-c3noc(-c4ccc(C#N)cc4)n3)c(C)c2c1 | -2 | 0.21
O=C(c1cnc2ccccc2n1)N1CC[C@H](Oc2ncc(F)cn2)C1 | 4 | -0.58
CC(C)(C)n1nc(CC(N)=O)nc1CCc1cn[nH]c1 | -7 | 0.86
CC1=NS(=O)(=O)N(C)C=C1C(=O)NCc1nc(C(C)C)cs1 | -18 | 1.88
O=C(Nc1cccc(-c2noc(C3CCCC3)n2)c1)c1cccc(Cl)c1 | -17 | 2.96
OC1(Cc2cccc(Cl)c2)CCN(CC2CCc3ncnn32)C1 (stereo not drawn) | -3 | 0.57
Clc1snnc1CN1CCO[C@@H](Cn2cccn2)C1 | -12 | 1.68
O=C(N[C@H]1CC[C@H](Nc2ccccn2)CC1)c1ccc(S(=O)(=O)N2CCCC2)cc1 | -11 | 1.06
Cc1ncc(CN(C)C(=O)Cc2cc(Cl)ccc2Cl)s1 | 11 | -1.62
CC1(C)Cc2cccc(Oc3ncncc3Br)c2O1 | -3 | 0.28
O=S(=O)(Cc1cccc(F)c1)N1CCC(n2ccnn2)CC1 | -22 | 2.5
COCC(=O)NCc1ccc(OC)c(OC(F)F)c1 | -13 | 2.03
FC(F)(F)[C@@H]1CCN(Cc2c[nH]c3nccnc23)CC12CCOCC2 | -2 | 0.4
CC(C)(C(=O)NCC1(c2ccccc2)CC1)[C@H](O)c1cccc(O)c1 | 22 | -2.83
C=CCCCn1nnc(CN(C)C(=O)c2ccccc2)n1 | -3 | 0.63
CO[C@H]1CCOC[C@@H]1NC1CCN(c2ncc3ccc(F)cc3n2)CC1 | 1 | -0.16
O=C(O)C1CCCN(C(=O)C2CC2C2CCCCC2)C1 (stereo not drawn) | -14 | 1.93
c1ccc(-c2cc(CNc3nncc(-c4cccc5ccccc45)n3)n[nH]2)cc1 | 7 | -0.98
Cc1csc(NC(=O)Cc2c(C)nc(C)[nH]c2=O)n1 | 11 | -1.46
O=C(Cn1cnc(-c2nc(-c3ccccc3)cs2)c1)NCc1cccc(Cl)c1 | -9 | 1.19
Cc1cccc(O[C@@H](C)C(=O)N(C)C2CN(c3ccc4nnc(C)n4n3)C2)c1C | -13 | 1.42
